Source: PubChem BioAssay AID1347417 (National Center for Advancing Translational Sciences (NCATS), 2020)
The whole screen tested about 120,000 compounds, of which about 5,300 (4.4%) were called active. Inconclusive means that the source gave no clear call. Such entries were picked first, then a sample of the others. Calls follow the shape of the dose curve; as a rule, active = well fitted inhibition curve with a large enough effect; inconclusive = small, poorly fitted or top-dose-only effect; inactive = no such curve, though single readings can be large or run the other way. Where the call is inconclusive, the potency comes from a doubtful curve fit.

Test: qHTS Primary assay for Inhibitors of Plasmodium falciparum Dd2 growth in vitro; also: nearly all actives have a fitted effect of over 65% in size;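 as to activity, negative = inhibition: plate controls were DMSO vehicle for no effect and reference drug for full effect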
Conditions: P. falciparum Dd2 growth, SYBR Green, 72 h; activity, negative = inhibition: at 28.9 µM (top of the series) unless noted; series mostly up to 28.9 µM
In short: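 Readout: SYBR Green fluorescence, 485 nm excitation, 535 nm emission, after ~16 h lysis at 37C. Before that, Dd2-infected red cells (2.5% hematocrit) grew 72 h with compound, 29 uM top final concentration.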
Potency is read from the fitted curve at half-maximal effect; tags tell the direction and shape of the fitted curve.

SMILES	Potency	activity, negative = inhibition	outcome
CCN(CC)S(=O)(=O)c1ccc2c(c1)c(=O)c(C(=O)N1CCN(c3cc(C)ccc3C)CC1)cn2C	inconclusive: 11.2 µM [inhibitor, single point]		
CN(Cc1ccc(-n2cccn2)cc1)C(=O)c1ccccc1C1CCNC1 (stereo not drawn)		inactive: -13.6%	
COc1ccccc1-c1cc2c(nc1-c1ccccc1)nc(C(=O)NC1CCN(C)CC1)n2C	inconclusive: 3.16 µM [inhibitor, partial curve, poor fit]		
COCC(C)NC(=O)C1=CC(c2ccc3c(c2)OCO3)=NS(=O)(=O)N1C (stereo not drawn)		inactive: 9.86%	
C#C[C@H]1CN2CC[C@H]1C[C@@H]2CNC(=O)CC(C)(C)C	inconclusive: 28.2 µM [inhibitor, partial curve, poor fit]		
CCCCn1c(C2CC(=O)N(c3ccc(OCC)cc3)C2)nc2ccccc21 (stereo not drawn)	inconclusive: 17.8 µM [inhibitor, partial curve, poor fit]		
CCS(=O)(=O)Nc1ccc(C2(C(=O)NCc3cccnc3)CCCCC2)cc1		inactive: -18.9%	
COc1ccccc1NC(=O)NC[C@H]1O[C@H](Cc2cc(-c3ccc(F)cc3)on2)CC[C@@H]1O	inconclusive: 10 µM [inhibitor, single point]		
CCOC(=O)CCNC(=O)N1CC[C@H]2C(=O)NCCCCCCN(Cc3ccncc3)[C@@H]2C1		inactive: -18.7%	
CCOc1ccccc1CN1CCC2(CCN(C(=O)NC3CCCC3)CC2)Oc2ccccc21		inactive: -3.55%	
O=C(OCC1CCCO1)c1ccc2c(c1)N(Cc1c(F)cccc1Cl)C(=O)c1ccccc1S2(=O)=O (stereo not drawn)	inconclusive: 17.8 µM [inhibitor, single point]		
CN1CC(=O)N(C2CCNCC2)Cc2c(NCC(C)(C)C)ncnc21		inconclusive: -164% [inhibitor]	
C[C@@H](NCc1ccccc1)c1onc(-c2ccc(F)cc2)c1C(=O)O		inactive: 10.3% [at 44.1 µM]	
Cc1nc(C(=O)N2CC[C@H](NC(=O)c3cnccn3)C[C@H]2C(=O)N[C@@H](Cc2cccs2)C(N)=O)cs1		inactive: -11.7%	
CCC(=O)N1CCC2(CC1)C(OC)C(=O)N2CC1CC1 (stereo not drawn)	inconclusive: 1.78 µM [inhibitor, partial curve, poor fit]		
COc1ncccc1-c1cnc2[nH]cc(CC(=O)Nc3cc(C)nn3C)c2c1	inconclusive: 31.6 µM [inhibitor, single point]		
O=C(c1ccc(F)cc1)N1CCC2(CN[S+](=O)([O-])c3cccnc3O2)C1 (stereo not drawn)		inconclusive: -45.5% [inhibitor]	
COc1ccc(NCc2cccn2-c2nnc(N3CCC(C)CC3)s2)c(OC)c1	active: 11.2 µM		
CSc1ccc(-c2nc3cc(C)ccn3c2Nc2ccc(C)cc2)cc1		inactive: 0.472%	
Cc1cccc(-c2nc(S(=O)(=O)c3ccccc3)c(N3CCN(c4ccccc4)CC3)o2)c1	inconclusive: 14.1 µM [inhibitor, partial curve, poor fit]		
NC1CCCN(Cc2cccc(OCCCn3ccnc3)c2)C1 (stereo not drawn)	inconclusive: 17.8 µM [inhibitor, single point]		
O=C(NC1CCCN(c2cc(-c3ccc(F)cc3)[nH]n2)C1)c1ccncc1 (stereo not drawn)			inactive
Cn1cccc1CN1CCCC(C(=O)NCc2ccccc2)CCNC(=O)CC1 (stereo not drawn)	inconclusive: 11.2 µM [inhibitor, single point]		

SMILES	Potency	activity, negative = inhibition	outcome
COc1cc2c(cc1OC1CCCC1)NC(=O)C21CCN(Cc2cccc(O)c2)CC1	inconclusive: 4.47 µM [inhibitor, partial curve, poor fit]		
CCC(CC)NC(=O)[C@H]1CCC[C@H]1NC(=O)c1ccc(OC)cc1		inconclusive: -30.5% [inhibitor]	
c1ccc2sc([C@H]3CCN(C4CCC4)C3)nc2c1	inconclusive: 25.1 µM [inhibitor, single point]		
CN(C)c1ccc(C(=O)NCC2CCN(c3cc(-c4ccc(Cl)cc4)[nH]n3)CC2)cc1	inconclusive: 1 µM [inhibitor, partial curve, poor fit]		
CN1CC2(CCCN(CC3CC3)C2)c2cc(C(=O)N3CC(O)C3)ccc21 (stereo not drawn)		inactive: -4.41% [at 44.1 µM]	
CC(=O)N1CCC(N[C@H]2C[C@@H](Cc3cc(CCO)on3)C2(C)C)CC1		inactive: 0.728% [at 44.1 µM]	
Cc1nc(C)c(C(=O)N2[C@H]3CC[C@@H]2c2cnc(-c4ccc(F)cc4)nc2C3)s1		inactive: -11%	
O=C1NC(C(=O)Nc2ccc3c(c2)OCCO3)Cn2cccc21 (stereo not drawn)	inconclusive: 10 µM [inhibitor, single point]		
COc1nc2c(cc1CNC(=O)C(C)(C)OC)C(=O)N(CCc1ccccn1)C2	inconclusive: 0.0794 µM [inhibitor, full curve]		
COc1ccc(-n2nc(C(=O)N3CCN(c4cccc(C)c4)C(C)C3)c3c4ccccc4n(C)c3c2=O)cc1Cl (stereo not drawn)	inconclusive: 3.16 µM [inhibitor, single point]		
COC(=O)c1ccc(NC(=O)c2c(OC)cc(=O)n3c2CCCC3)cc1		inactive: 27.6%	
O=C(C1CCCC1)N1CCOc2ccc(CN3CCc4ccccc4C3)cc2C1	inconclusive: 7.08 µM [inhibitor, partial curve, poor fit]		
O=C(Cc1c[nH]c2ccccc12)N[C@H](Cc1ccccn1)C1CC(O)C1 (stereo partly drawn)		inactive: -0.648%	
N[C@H]1CN(C(=O)c2ccccc2Oc2ccccc2)C[C@@H]1C1CC1	active: 6.31 µM		
Cc1ccc(-c2cc3c(=O)n(CCNC(=O)c4ccc(F)cc4Cl)ccn3n2)cc1C		inactive: -10.7%	
Cc1ccc(NC(=O)Nc2cccc(-c3ccc(N4CCOCC4)nn3)c2)cc1F	inconclusive: 20 µM [inhibitor, single point]		
C[C@@H]1C(=O)O[C@H]2[C@H]1CC[C@@]1(C)Cc3sc(NC(=O)CCC(=O)O)nc3[C@@H](C)[C@H]21	inconclusive: 5.01 µM [inhibitor, full curve, poor fit]		
COCCN1CCOC[C@H]2CCN(C(=O)C(C)C)C[C@H]21		inactive: 17.6%	
CS(=O)(=O)N1CCCN(CC2CCCCC2)CCNC(=O)CC1c1ccccc1 (stereo not drawn)	inconclusive: 11.2 µM [inhibitor, single point]		
Cn1cc(CC(=O)N2CCCc3ncc(C(=O)NCc4cccs4)cc32)c2ccccc21	inconclusive: 0.158 µM [inhibitor, full curve]		
COc1ccc(C(=O)CC2(O)C(=O)N(CCc3ccccc3)c3ccc(Br)cc32)cc1OC (stereo not drawn)	inconclusive: 10 µM [inhibitor, single point]		
CC(C)(C)C(=O)N1CCC2(CC1)CC(c1ccccc1)C(=O)N(C1CC1)C2 (stereo not drawn)		inactive: -12.4%	
COc1ccc(OCC(=O)N2CCN(Cc3cc(=O)n4nc(-c5ccccc5C)sc4n3)CC2)cc1	inconclusive: 6.31 µM [inhibitor, partial curve, poor fit]		

SMILES	Potency	activity, negative = inhibition	outcome
CCOC(=O)C1=C(C)N=C2SC=C(CC(=O)N3CCC(C)CC3)N2C1c1ccc(C)cc1C (stereo not drawn)	inconclusive: 0.891 µM [inhibitor, full curve, poor fit]		
CCOC(=O)c1cnn2c(C(F)(F)F)cc(-c3ccc(Br)cc3)nc12	inconclusive: 17.8 µM [inhibitor, single point]		
O=C(Nc1cccc(C(F)(F)F)c1)C1CCN(S(=O)(=O)c2cccc3nsnc23)CC1	inconclusive: 0.891 µM [inhibitor, full curve]		
O=C(Cc1c[nH]c2ncc(-c3ccccc3F)cc12)NCc1cccnc1		inactive: -2.39% [at 44.1 µM]	
CCc1ccc(N2CC(c3nc4ccccc4n3Cc3ccccc3C)CC2=O)cc1 (stereo not drawn)	inconclusive: 17.8 µM [inhibitor, single point]		
Cc1cccc(CN2CCC(C(=O)N3CCCCCCNC(=O)CC3)CC2)c1		inactive: 14.2%	
Cc1csc(NC(=O)[C@@H]2C[C@H](c3cccc(C(F)(F)F)c3)N(Cc3cnn(C)c3)C2)n1	inconclusive: 20 µM [inhibitor, partial curve, poor fit]		
COc1ccccc1CCC(=O)N1CCC2(CC1)N(c1ccccc1)C(=O)CS2(=O)=O	inconclusive: 10 µM [inhibitor, single point]		
Cc1ccccc1C(=O)N1CCC2(CC1)Cc1ccccc1NC2=O			inactive
Fc1ccc(-c2cnc3n2C[C@H](CNCc2ccccn2)OC3)cc1	inconclusive: 2 µM [inhibitor, full curve]		
COC(=O)Cc1c(C)c2ccc3c(c2oc1=O)CN(Cc1ccc(C)cc1)CO3	active: 11.2 µM		
CCN1c2cc(C(=O)NCc3ccc(F)c(Cl)c3)ccc2C(=O)N2CCCCCC21 (stereo not drawn)	inconclusive: 5.01 µM [inhibitor, partial curve, poor fit]		
CN1c2cc(C(=O)NC3CCCCC3)ccc2C(=O)N2CCCCC21 (stereo not drawn)	inconclusive: 3.98 µM [inhibitor, single point]		
Clc1ccc(-c2cnc([C@@H]3COCCN3C3CCCCC3)[nH]2)s1	inconclusive: 1.78 µM [inhibitor, partial curve, poor fit]		
COCC(=O)NC1CCC12CCN(C(=O)C1CCOCC1)CC2 (stereo not drawn)		inactive: -16.1%	
CN1CC(=O)N(c2ccccc2F)Cc2c1ncnc2N1CCN(c2ncccn2)CC1		inactive: -14.3%	
O=C(CCC1CCCN(C(=O)Cc2c[nH]c(=O)[nH]c2=O)C1)Nc1ccccc1F (stereo not drawn)		inactive: -20.5%	
CC(C)[C@@H]1CN(C(=O)c2scc3c2CCCC3)C[C@H]1NS(C)(=O)=O		inactive: -6.84%	
CCS(=O)(=O)N1CCc2cc(C(=O)Nc3cccc(C)c3C)ccc21	inconclusive: 17.8 µM [inhibitor, single point]		
CCOCc1nc(C2CCCN(C(=O)Cc3ccccc3C)C2)no1 (stereo not drawn)		inactive: 1.95%	
CC(NC(=O)C1CCN(C(=O)c2ncn3c2COC(c2ccc(F)cc2)C3)CC1)c1ccccc1 (stereo not drawn)			inactive
COc1ccc(-c2cc(N3CCCN(C(=O)c4ccc5[nH]ccc5c4)CC3)n[nH]2)cc1	inconclusive: 1.12 µM [inhibitor, partial curve, poor fit]		
